Reference: the RNAGym collection of RNA variant scans (doi:10.7554/elife.90254)
Read counts are not given, so values of variants with three or more changes are uncertain.

B1: OR4K15 (parent)
chain: GUUAACGGUCAUAGGCCAUGGAAACUAGGAGCACCAUUUCGCUGCCAGUGAAGAAAUGAACAAAGAAAAUCUGGGCCAGGCAGGCAUCAAAAGAAAUAGUCUUGCGCUCAACCAGAAAGUCUGUAAUCAUUUUAAGGGUA

Variants of: B1
Test: self-cleavage, relative activity (ratio to wild type); higher = more cleavage; in vitro, sequencing; the parent is a self-cleaving ribozyme

Row | Variant | self-cleavage
1 | A23G A67G A95C C112G U120C | 0.01
2 | A4G A5U U9A A68U U100C | 2.09
3 | U9C C16U U19C A47U U72C U130A | 0.23
4 | A13G A27G A63G | 1.11
5 | A13G A33G A96G | 0.84
6 | U19C A36U U38A A89U A95G A118G U139G | 0.83
7 | A23U A67U A90G A125G | 0.29
8 | U19C A60G A67G U100C | 1.8
9 | A5G A55G A114U U122C | 0.03
10 | A23G A56C U57C A116C U120C | 0.03
11 | U43C A68G A89U U131C | 0.84
12 | A64G G79A A86U A111G | 0.01
13 | U43C A94C U122C | 1.46
14 | U19C A55G A64G U130C | 0.55
15 | A51G U102A G104U | 0.01
16 | A30G U38A A59G U124C | 1.38
17 | A30G A47G A67U | 1.38
18 | U2C A60G A63G A66G U102C U103C U122C A140G | 0.13
19 | A23C A89U A111G | 0.02
20 | U9C A22U A89G | 1.52
21 | U37C A47G A96G | 0.41
22 | G14A A54G A67G A116G | 0.12
23 | U37G U38C A51G | 0.74
24 | A69G A92G A117G U127C | 0.28

Row | Variant | self-cleavage
25 | C46U A51U A111G | 0.01
26 | U9C A52G U103C | 1.71
27 | U9A A33G U39A C45U A51G A60G | 0.84
28 | A18G U19C U37C A62G A69G A91U | 0.71
29 | A82C A89U A111G U127C | 0.01
30 | G21U A52G A86G U100A | 0.4
31 | U2C G84C U100C A135G | 0
32 | U38C A56G A64G U108C | 0.01
33 | A4G U43A A78C A91G U131A | 0.18
34 | A59G A91G A116G U132C U133C | 0.18
35 | U2A A27G A55G A111U U122C | 0.07
36 | U12C A63G A67G U103C U122C | 0.22
37 | U9A A33U U37C A94G | 1.64
38 | A33U A94G U120C U127C | 0.56
39 | U9C A64G A118G | 1.48
40 | U100C A111G A118G | 0.01
41 | A59G A68G U72C | 0.21
42 | A5G A18U A64G A98G | 0.74
43 | U103C A114C A126U | 0
44 | U2C A67U A86G A110U U132C | 2.34
45 | U57C A89G C113U A117G | 0.01
46 | U9C A22G A67G U108C | 0.07
47 | U43A A82G U97C | 0.33
48 | U3A C77A A89G U130C | 0.78

Row | Variant | self-cleavage
49 | U12C A62U U70C | 0.82
50 | A60G A86U A116G | 0.7
51 | A64G U70C A95G C109A U120A U127A U139C | 0.51
52 | U43C U97A A129G | 0.97
53 | G50A A52G U103C A110U | 0.99
54 | U9C A24G A63G | 1.44
55 | A18U A23G A60G A66G | 0.49
56 | U3C U9C U12C U49C U70A | 1.13
57 | C17U U108C A140G | 0.02
58 | A5G A11U U49C | 1.02
59 | A51G A69U U102A | 1.17
60 | U26C A91G U102C | 1.25
61 | U12C A54G U70C U133C | 1.32
62 | U12C A24G A110U | 1.87
63 | A11G A33G A118G U139C | 0.53
64 | A22G A69G U72A | 0.32
65 | A91U U102C U122C | 1.88
66 | A59U A82C U102C A129G | 0.17
67 | A11G A62U U97A | 0.73
68 | A24G A55G A60G U103A | 0.65
69 | A5G A66C A117G | 0.73
70 | A52G U87C A111G A126G | 0
71 | A90G A111G C128U | 0.04
72 | A51G U100C A117G | 2.54

Row | Variant | self-cleavage
73 | A23G A63G U100A | 1.17
74 | A23G A59U A82U U130C | 0.12
75 | A11G A117G U131C | 1.18
76 | U43C A52G U72C U122C | 0.13
77 | U9C G15U U70C | 0.2
78 | A13U U39C A82G | 0.13
79 | A13G A23G A30G A47U | 0.96
80 | A63G A82G A92G A117U U130C | 0.29
81 | C10U A33G U39C A54G A56G U57G A59U | 0.57
82 | U2C A18U G83U A89U | 1.17
83 | U9C A33G U43C A126G A135G | 0.11
84 | U49C A54G A117G A118G | 1.87
85 | A56U A82G A110G | 0.1
86 | U3C G20U A30U U39C A96U A118G U139C | 1.56
87 | A13G U39A A78U A86G A118G | 0.3
88 | A33G A111G A125G | 0.03
89 | A64G A78U U103C | 0.13
90 | A62G A66G A68G A78G A126G | 0.07
91 | A13G A24C A47G | 1.08
92 | U37C A54G U57C A66G | 0.1
93 | A13G U37C U127C | 1.02
94 | A59G A82U U132A | 0.34
95 | A24G A96C A135G | 0.95
96 | A36G A51U U100C | 1.81

Row | Variant | self-cleavage
97 | A18U A54G G58U A135G | 2.01
98 | A4G A36G A56G A95G U108C G115A | 0.03
99 | U9C A18G A22G A67G A116G A126G | 0.55
100 | U9C U43A A55G A59G U122C | 0.91
101 | U19C A63G A86G A118G | 1.31
102 | A11G G48A A60U A69U | 0.92
103 | U43C A86U U103C | 1.24
104 | A33U U37C A60G | 0.73
105 | A5G U19A A30G A52U A92U U132C | 1.1
106 | U12C A24G A69G U70C A91G | 0.28
107 | U39A A56G U102C U132C | 2.35
108 | A67G A78U A114G | 0.07
109 | A62G U72A U87C A111G A140G | 0.01
110 | A22G U49C A95G G138C | 1.42
111 | A47G G83U A92U | 0.37
112 | G20U A23G U37C U49C A59G A66U U132A | 0.41
113 | G7A A47U A91G U122C | 0.69
114 | A23G A55G A69G | 1.1
115 | U2C U39A C42G A94G | 0.63
116 | C32U U38C A129G | 1.68
117 | A23G A51G G58A | 0.7
118 | A30G A92G U102C A116G | 1.06
119 | A24G A54U U131C | 1.72
120 | U39C A52G A68G U97C A110G A126U | 0.07

Row | Variant | self-cleavage
121 | A36U A51G U103C | 1.06
122 | U2C U70C G99U U132A | 0.24
123 | C35G G41A A55G A59G | 1.1
124 | A23G A92G A116U | 0.46
125 | A33G A89G A90G U127A | 0.55
126 | A11U C16U U43C A63G U127A | 1.23
127 | A47U A55G A126G | 0.67
128 | A5G A22U C32U A33U U43A C61G A69U U124A | 0.63
129 | A36U A63U A135G | 2.16
130 | A5G A33G A47U A51G A63U U87C A129C | 0.26
131 | A59G A66G U72C A86U | 0.45
132 | U43C A69G A96G A117G U132A | 0.87
133 | U9A A66G A98G | 1.27
134 | A11C U26A A129U | 0.73
135 | A13G A22G A51G U70C | 0.79
136 | U2C A92G U100C | 1.29
137 | U2C U43C A91G A94G | 0.86
138 | A5G A66G U131C | 1.62
139 | A23G A91G U124C | 2.03
140 | U43C A60G U139A | 1.57
141 | A4G A59G A111G | 0.32
142 | U87C U102C U124C | 0.71
143 | C32U U43A A68G | 2.28
144 | A5G A36G A59G A92G A94G A114G A126G U133C | 0.32

Row | Variant | self-cleavage
145 | A13G A24G U103C U120A G137A | 1.01
146 | A5G G14A A30G C46U A82G A92G A118G A126G | 0.08
147 | A36U U87C U103C A110G | 0.14
148 | U12C A63G A96G | 1.56
149 | A11G A59G U102A U131C | 0.54
150 | A59G A82G U102A | 0.32
151 | A24G U43C A94G U100C | 2.28
152 | A27G A30U U43A A129G | 1.32
153 | U49G A62G G83A A95G A110C | 0.3
154 | G7A A24C U102C A116G | 1.57
155 | A56G A59G A67G A118G U130C | 1
156 | A18G A36U A63G U131C | 0.97
157 | U26C A54G A117U | 0.58
158 | C10U A52G G65A A89G A92U A94U | 1.08
159 | A68G U87C A94U | 1.06
160 | U39C A51G A59G A68G | 0.84
161 | A11G A47C U87C A90G U102C U122C | 0.12
162 | A51U A94U U122C | 1.72
163 | A23G A47G A68G A116G | 0.83
164 | U39C U57G U103C | 0.2
165 | A69G A86G A117G U122C U132C | 0.42
166 | U43C A62G A90G | 1.29
167 | A30G A56G A60G G104U | 0.02
